Test results taken from PubChem BioAssay AID504832 (National Center for Advancing Translational Sciences (NCATS), 2011).
The whole screen tested about 310,000 compounds, of which about 18,000 (5.8%) were called active. This list was built around the results that the source calls inconclusive (neither active nor inactive); the mix of calls is not that of the screen. The call rests on the fitted dose curve; in most records, active means well fitted inhibition curve with a large enough effect; inconclusive means small, poorly fitted or top-dose-only effect, or another doubt; inactive means no such curve, though single readings can be large or run the other way. Potencies of inconclusive entries are left out as doubtful fits.
On the % scale 0 is the no-effect control and ±100 the full control effect; potency means the concentration at half of the fitted maximal effect; tags describe the fitted curve by direction and shape.

Test: Primary qHTS for delayed death inhibitors of the malarial parasite plastid, 48 hour incubation
Conditions: P. falciparum luciferase growth in erythrocytes; series mostly up to 28.7 µM; activity change, negative = inhibition: at the top concentration
Summary of the method: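 Here the parasites carry a stable luciferase gene and grow inside erythrocytes in Albumax-based RPMI medium with compound for one erythrocytic cycle. Activity is scored as loss of luminescent signal.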
In the case of `CCc1c(C)c2ccc(OCC(=O)N(C)C)c(C)c2oc1=O`, the “activity change, negative = inhibition” value is reported as inactive: 3.87%. In the case of `COCCNCC1C(Oc2ccc(Cl)cc2)C(=O)N1c1ccccc1C` (stereo not drawn), the Potency is reported as inconclusive [inhibitor, single point]. For `CCOC(=O)Cc1c(C)[nH]n(-c2ccccc2)c1=O`, the Potency was inconclusive [inhibitor, partial curve]. With `O=C1NC(=S)N/C1=C/c1ccc(-c2c(Br)cc([N+](=O)[O-])cc2Br)o1` the Potency was inconclusive [inhibitor, single point]. In the case of `COc1ccc2c(C(=O)CN3CCSCC3)c[nH]c2c1`, the “activity change, negative = inhibition” value is reported as inactive: -16.2%. For `CCOC(=O)[C@H]1[C@H]2COc3ccc(Cl)cc3[C@@H]2N2C(=O)c3cc(F)c(F)cc3NC(=O)[C@@]12C`, the Potency was inconclusive [inhibitor, single point]. For `COc1ccc2nc(NC(=O)CCc3cc(OC)c(OC)c(OC)c3)sc2c1`, the Potency was inconclusive [inhibitor, partial curve, poor fit]. With `Cn1c(C(C(=O)NCC2CCCO2)N(CCc2ccccc2)C(=O)Cn2nnc3ccccc32)nc2ccccc21` (stereo not drawn) the Potency was inconclusive [inhibitor, partial curve, poor fit]. For `CC(=O)Nc1ccc(S(=O)(=O)Nc2cccc(-n3c(C)nc4ccccc4c3=O)c2)cc1`, the Potency was inconclusive [inhibitor, single point]. In the case of `CCCCCC(=O)Nc1ccc(-c2csc(N)n2)cc1`, the Potency is reported as inconclusive [inhibitor, single point]. With `Cc1ccc(S(=O)(=O)N2CCN(C(=O)CSC(=S)N3CCCC3)CC2)c(C)c1` the Potency was inconclusive [inhibitor, partial curve, poor fit]. In the case of `CCCNC1=CC(=O)CC(C)(C)C1`, the “activity change, negative = inhibition” value is reported as inactive: 5.88%. In the case of `COc1ccc(CCNC(=O)c2ccc(S(=O)(=O)N3CCCCC3)cc2)cc1`, the Potency is reported as inconclusive [inhibitor, single point]. In the case of `Cc1cccc(N2CCN(S(=O)(=O)c3cccc4nonc34)CC2)c1C`, the “activity change, negative = inhibition” value is reported as inactive: -12.9%. For `COC(=O)CNC(=O)c1ccc(NS(=O)(=O)c2cc([N+](=O)[O-])ccc2Cl)cc1`, the Potency was inconclusive [inhibitor, single point]. For `COc1ccccc1CN(C)CC(=O)Nc1ccccc1-c1ccccc1`, the Potency was inconclusive [inhibitor, single point]. In the case of `Cc1ccnc(NC2OC(=O)c3ccccc32)c1` (stereo not drawn), the “activity change, negative = inhibition” value is reported as inactive: 9.82%. In the case of `Cc1ccc(CN2CCSc3ccc(C(=O)NCc4cccnc4)cc32)cc1`, the Potency is reported as inconclusive [inhibitor, single point]. For `C=CCSc1nnc(-c2nnc(SCC=C)n2-c2ccccc2)n1-c1ccccc1`, the Potency was inconclusive [inhibitor, partial curve]. With `N#Cc1c(-c2ccc3c(c2)OCO3)csc1N` the “activity change, negative = inhibition” value was inactive: 53.5%. For `COc1ccccc1C1SCCN1S(=O)(=O)c1cccc(C(F)(F)F)c1` (stereo not drawn), the Potency was inconclusive [inhibitor, partial curve, poor fit]. In the case of `COc1ccc(Cc2nn3c(-c4ccccc4Br)nnc3s2)cc1`, the Potency is reported as inconclusive [inhibitor, single point]. For `Cc1ccccc1CN1CCNC(=O)C1CC(=O)NCCC1=CCCCC1` (stereo not drawn), the Potency was inconclusive [inhibitor, single point]. In the case of `CCOc1ccc(NC(=O)c2c(NC(=O)CN3CCCC3)sc3c2CCC3)cc1`, the Potency is reported as inconclusive [inhibitor, full curve, poor fit]. For `COc1ccc(N(C(=O)c2snc(C(N)=O)c2N)C(C(=O)NC2CCCC2)c2cc(OC)ccc2OC)cc1` (stereo not drawn), the Potency was inconclusive [inhibitor, single point]. For `Cc1cc(C)c2nc(NNC(=O)c3cc(=O)c4ccccc4o3)sc2c1`, the Potency was inconclusive [inhibitor, full curve]. In the case of `COc1ccc(C(=O)Nc2cc(C)nn2-c2nc3ccccc3[nH]2)c(OC)c1`, the Potency is reported as inconclusive [inhibitor, single point]. For `CCOc1cc(/C=N/NC(=O)CCc2n[nH]c(=O)[nH]c2=O)ccc1O`, the “activity change, negative = inhibition” value was inactive: 7.76%. With `Cc1ccc(CN(C)C(=O)COc2ccc(S(=O)(=O)N3CCCC3)cc2[N+](=O)[O-])c(C)c1` the Potency was active: 11.7 µM. For `O=C(Cn1cc2c(n1)CCCC2)NCc1ccccn1`, the “activity change, negative = inhibition” value was inactive: 4.29%. With `O=C(Nc1ccc(Cl)cn1)C1COc2ccccc2O1` (stereo not drawn) the Potency was inconclusive [inhibitor, single point]. With `O=C(NCCc1ccc(F)cc1)Nc1ccccc1Cl` the Potency was inconclusive [inhibitor, full curve]. With `COc1ccc(/C=N/NC(=O)CSc2nnc(CCCc3ccc(OC)c(C)c3)o2)cc1` the Potency was inconclusive [inhibitor, single point]. For `O=C(Nc1nc2n(n1)C(c1ccccc1)CC(c1ccc(Cl)cc1)N2)c1ccco1` (stereo not drawn), the Potency was active: 13.1 µM. For `O=C([O-])c1ccc(-[n+]2c(-c3ccccc3)cc(-c3ccccc3)cc2-c2ccccc2)cc1`, the Potency was inconclusive [inhibitor, single point]. For `COc1ccc(NC(=O)CNC(=O)c2nn(-c3ccc(OC)c(OC)c3)c(=O)c3ccccc23)c(OC)c1`, the Potency was inconclusive [inhibitor, full curve]. In the case of `O=C(OCc1c(Cl)cccc1Cl)c1ccncc1`, the Potency is reported as inconclusive [inhibitor, single point]. For `O=C(NCCCl)Nc1cccc(Br)c1`, the “activity change, negative = inhibition” value was inactive: -8.59%. For `CN(C)CCNC(=O)COc1cccc(Cl)c1`, the “activity change, negative = inhibition” value was inactive: 30%. With `CCN(CC)C(=O)Cc1ccccc1` the “activity change, negative = inhibition” value was inactive: -1.06%. For `CN(CC(=O)N1CCCCC1)S(=O)(=O)c1cccc2nsnc12`, the Potency was inconclusive [inhibitor, single point]. For `CCC(C)N1CC(=O)N2C(c3ccc(OC)cc3OC)c3[nH]c4ccccc4c3C[C@H]2C1=O` (stereo partly drawn), the Potency was inconclusive [inhibitor, partial curve]. With `O=C(NNC(=O)c1cc(-c2ccc(Cl)cc2Cl)nc2ccccc12)Nc1ccccc1` the Potency was inconclusive [inhibitor, single point].
